Laboratory results as given in the RNAGym collection of RNA variant scans (doi:10.1073/pnas.2313332121).
Variants at the floor of the assay are shown more often than the library holds them.

B1: TPR 5TU (parent)
chain: GGAUCUUCUCGAUCUAACAAAAAAGACAAAUCUGCCACAAAGCUUGAGAGCAUCUUCGGAUGCAGAGGCGGCAGCCUUCGGUGGCGCGAUAGCGCCAACGUUCUCAACUAUGACACGCAAAACGCGUGCUCCGUUGAAUGGAGUUUAUCAUG

Variants of: B1
Assay: polymerase ribozyme fitness, log enrichment relative to wild type (log ratio); higher = more active; in vitro selection for triplet polymerase activity
Outline: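 The heterodimeric triplet polymerase ribozyme's subunits were each mutagenized into PCR-built libraries and transcribed. Every library was selected once, in triplicate, by annealing with a biotinylated primer, the partner subunit and triplets, incubating frozen at −7 °C, gel-excising extended constructs, capturing on streptavidin beads and running RT-PCR. Input and output libraries were Illumina-sequenced, with genotypes kept only at ≥10 input reads and ≥1 read per output. Fitness, from inverse-variance-weighted replicate averages, is the base-2 logarithm of genotype enrichment over wild-type enrichment.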

| Variant | polymerase ribozyme fitness (log ratio) |
| --- | --- |
| GGAUCUUCUCGAUCUAACCAAAAAGACAAAUCUGCCACAAAGCUUGAGAGCAUCUUCGGCUGCAGAGGCGGCAGCCUUCGGUGGCGCGAUAGCGCCAACGUGCUCAACGAUGACACGCAAAACGCGUGCUCCGUUGAAUGGAGUUUAUCAGG | ≤ -4.2 |
| GGAUCUUCUCGAUCUAAUAAAAAAGACAAAUCUGCCACAAAGCUUGAGAGCAUCUACGGAUGCAGAGGCGGCAGCCUUCGGUGGCCCGAUAGCGCCAACGUUCUCAACUAUGACACGCAAAACGCGUGCUCCGUUGAUUGGAGUUUAUCAUG | ≤ -4.2 |
| GGAUCUUCUCGAUCUAACCAAAAAGACAAAUCUGCCACAAAGCUUGAGAGCAUCUUCGGGUGCAGAGGCGGCAGCCUUCGGUCGCGCGAUAGCGGCAACGUUCUCAACUUUGACACGCAAAACGCGUUCUCCGUCGAAUGGAGUUGAUCAUG | ≤ -4.2 |
| GGAUCUUCUCGAUCUAACCAAAAAGACAAAUCUGCAACAAAGCUUGAGAGCAUCUGCGGAUGCAGAGGCGGCAGCCUUCGGUGGCGCGAUGGCGCCAACGUUCUCAACUAUGACACGCAAAACGCGUGCUCCGUUGAAUGGAGAUUAUCAUG | ≤ -4.2 |
| GGAUCUUCUCGAUCUAACCAAAAAGACAAAUCUGCCACAAAGCUUGAGAGUGUCUUCGGAUGCAGAGGCGGCAGCCUUCGGUGUCGCGUUAGCGCCAACGUUCUCAACUAUGACACGCAAAACUCGUGCUCCGUUGAAUGUAGUUUAUCAUG | -1.23 |
| GGAUCUUCUCGAUCUAAUAAAAAAGACAAAUCUGCCACAAAGCUUGAGAGCAGCUUCGGAUGCAGAGGCGGCAGCCUUCGGUGGCGCGAUAUCGCCAACGUUCUCAACUAUGACGCGCAAAACGCGUGCUCCGUUGAAUGGAGUUUAUGAUG | ≤ -4.2 |
| GGAUCUUCUCGAUCUAACCAAAAAGACAAAUCUGCCACAACGCUUAAGAGCAUCUUCGGAUGCAGAGGCGGCAGCCUUCGGUGCCGGGAUAGCGCCAACGUUGUCAACUAUGACACGCAAAACGCGUGCUCCGUUGAAUGGAGUUUAUCAUG | ≤ -4.2 |
| GGAUCUUCUCGAUCUAACCGAAAAGACAAAUCUGCCGCAAAGCUCGAGAGCAUCUUCGGAUGCAGAGGCGGCACCCUUCGGUGGCGCGAUAGCGCCAAAGUUCUCAACUAUGACACGCAAAACGCGUGCCCCGUUGAAUGGAGUUUAUCAUG | ≤ -4.2 |
| GGAUCUUCUCGAUCUAACCAGAAAGACAAAUCUGCCACAAAGCUUGAGAACAUCUUCGGAUGCAGAGGCGGCAGCGUUCGGUGGCGCGAUAGCGCUAAGGUUCACAACUAUGACACGCAAAACGCGUGCUCCGUUGAAUGGAGUUCAUCAUG | ≤ -4.2 |
| GGAUCUUCUCGAUCUAACCAAAAAGACAAAUCUGCCACAAAGCUUGAGAGCAUCUUCGGAUGCAGAGGCGGCAGCCUUCGGUGGCGCGAUAGCGCCAACGUUCUCAACUAUGACUCGGAAAACGCGUGUUCCGUUGAAUGGUGUUUAUCAUG | ≤ -4.2 |
| GGAUCUUCUCGAUCUAACCAAAAAGACAAAUCUGCCACAAAGCUUGAGAGCAUCUUCGGAUGCAGGGGCGGCAGCCUUCGGUGGCGCGUUAGCGCCAAUGUUCUCAACUAUGACACGCAAAACGCGUGCUCCGUUGAAUGGAGUUUAUCAUG | ≤ -4.2 |
| GGAUCUUCUCGAUCUAACCAAAAAGACAAAUCUGCCACAAAGCUUGAGCGCAUCUUCGGAUGCAGAGGCGGCUGCCGUCGGUGGCGCGAUAGCGCGAACGUUCUCAACUAUGACACGCAAAACGCGUGCUCCGUUGAAAGGAAUUUAUCAUG | ≤ -4.2 |
| GGAUCUUCUCGAUCUAACCGAAAGGACAAAUCUGCCACAAAGCUUGAGAGCAUCGUCGGAUGCAGACGUGGCAGCCUUCGGUUGCGCGAUAGCGCCUACGUUCUCAACUAUGACACGCAAAACGCGUGCUCCGUUGAAUUGAGUUUAUCAUG | ≤ -4.2 |
| GGAUCUUCUCGAUCUAACCAAAAAGACAAAUCUGCCACAAAGCUUGAGGGCAUCUUCGGGUGCAGAGGCGGCAGCCUUGGGUGGCGGGAUAGCGCCAGCGUUCUCAACUAAGCCACGCAAAACGCGUGCUCCGUUGAAUGGAGUUUAUCAUG | ≤ -4.2 |
| GGAUCUUCUCGAUCUAAUAAAAAAGACAAAUCUGCCACAAAGCUUGAGAGCAUCUUCGGAUGCAGAGUCGGCAGCCUUCCGUGCCGCGAUAGCGCCAACGUUCUCAACUAUGACACGCAAUACGCGUGCUCCGUUGAAUGGAGUUUUUCAUG | ≤ -4.2 |
| GGAUCUUCUCGAUCUAACCAAAAAGACAAAUCUGCCACAAAGUUUGAGAGCAUCUUCGGAGGCCGAGGCGGCAGCCGUCGGUGGUGCGAUAGCGCCAACGUUCUCAACUUUGACAGGCAAAACGCGUGCUCCGUUGAAUGGAGUUUAUCAUG | ≤ -4.2 |
| GGAUCUUCUCGAUCUAACCAAAAAGACAAAUCUGCCACAACGCUUGACAGCAUCUUCGGAUGCAGAGGCGGCAGCCUUCGGUGGCGUGAUCGCGCCAACGUUCUCAACUAUGACCCGCAAAUCGCGUGCUCCGUUCAAUGGAGUAUAUCAUG | ≤ -4.2 |
| GGAUCUUCUCGAUCUAAUAAAAAAGACAAAUCUGCCACAAAGCUUGAGAGCAUCUUCGGAUGCAGAGGCGGCAGCCUUCGGUAGCGCGAUAGCGCCAACGUUCUCAACUAUUACACGCAAAACGCGUGCUCCGUUGAAUGGAGUUUAUCAUG | ≤ -4.2 |
| GGAUCUUCUCGAUCUAACCAAAAAGACAAAUCUGCCACAAAGUUUGAGAGCAUCUUCGGAUGCAGAGGCGGCAGCCUUCGGUGGUGCGAUAGCGCCAACGUUCUCAACUAUGACACGCAAAACGCGUGCUCCGUUUAAUGGAGUUUAUCAUG | ≤ -4.2 |
